In all, about 2,900 compounds were measured (“NF-kB SEAP reporter activity, fold change vs agonist alone”: median about 0.99, highest 2% from about 2.6 on). The list shows a part of the results.
What was measured:
RAW-Dual [1] = experiment: NF-kB SEAP reporter activity, fold change vs agonist alone; higher = enhanced NF-kB activity
Procedure, shortened: (§1)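 Cytotoxic wells were those whose IncuCyte confluency was below 70% of agonist controls in both mask sets. The cells were RAW-Dual macrophages at 50,000 cells/well in DMEM on 384-well plates, dosed with 50 nL of library stock by pin tool, stimulated with a PRR agonist 1 h later, and kept at 37 °C, 5% CO2 for 20 hours. IRF and NF-κB reporter activity, as fold change over agonist-alone wells, came from supernatant read by QuantiLuc luminescence and QuantiBlue absorbance, respectively.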

RAW-Dual [2] = experiment: NF-kB SEAP reporter activity, fold change vs agonist alone; cytotoxicity flag (confluency mask): not cytotoxic; higher = enhanced NF-kB activity
Procedure, shortened: as §1

RAW-Dual [3] = experiment: NF-kB SEAP reporter activity, fold change vs agonist alone; cytotoxicity flag (confluency mask): cytotoxic (confluency <70% of control); higher = enhanced NF-kB activity
Procedure, shortened: as §1

[4] = library stock concentration (final ~1000-fold dilution): 10 mM, cytotoxicity flag (confluency mask): not cytotoxic, agonist: Imiquimod (TLR7) […]
[5] = library stock concentration (final ~1000-fold dilution): 10 mM, cytotoxicity flag (confluency mask): not cytotoxic, agonist: MPLA (TLR4) […]
[6] = agonist: ODN 1826 (TLR9) 0.5 ug/mL
[7] = agonist: Pam2CSK4 (TLR2/6) 0.1 ug/mL
[8] = agonist: Pam3CSK4 (TLR2/1) 0.1 ug/mL

SMILES: NC1(Cc2ccc(Cl)cc2)CCN(c2ncnc3[nH]ccc23)CC1
- NF-kB SEAP reporter activity (RAW-Dual [1]; [4]): 0.772
- NF-kB SEAP reporter activity (RAW-Dual [1]; [5]): 0.885

SMILES: NC1(Cc2ccc(Cl)cc2)CCN(c2ncnc3[nH]ccc23)CC1 (library stock concentration (final ~1000-fold dilution): 10 mM)
- NF-kB SEAP reporter activity (RAW-Dual [2]; agonist: LPS (TLR4) 0.1 ug/mL): 0.427
- NF-kB SEAP reporter activity (RAW-Dual [2]; [6]): 0.866
- NF-kB SEAP reporter activity (RAW-Dual [2]; [7]): 0.402
- NF-kB SEAP reporter activity (RAW-Dual [2]; [8]): 0.827

SMILES: Cc1cc(C(C)Nc2ccccc2)c2nc(N3CCOCC3)cc(=O)n2c1 (stereo not drawn) (library stock concentration (final ~1000-fold dilution): 10 mM)
- NF-kB SEAP reporter activity (RAW-Dual [2]; agonist: LPS (TLR4) 0.1 ug/mL): 1.35
- NF-kB SEAP reporter activity (RAW-Dual [2]; [6]): 0.605
- NF-kB SEAP reporter activity (RAW-Dual [2]; [7]): 0.633
- NF-kB SEAP reporter activity (RAW-Dual [2]; [8]): 0.734

SMILES: Cc1cc(C(C)Nc2ccccc2)c2nc(N3CCOCC3)cc(=O)n2c1 (stereo not drawn)
- NF-kB SEAP reporter activity (RAW-Dual [1]; [4]): 0.511
- NF-kB SEAP reporter activity (RAW-Dual [1]; [5]): 1.36

SMILES: O=C1OC(COc2ccccc2[N+](=O)[O-])CC1Cc1ccccc1 (stereo not drawn)
- NF-kB SEAP reporter activity (RAW-Dual [1]; [4]): 0.819
- NF-kB SEAP reporter activity (RAW-Dual [1]; [5]): 1.09

SMILES: O=C1OC(COc2ccccc2[N+](=O)[O-])CC1Cc1ccccc1 (stereo not drawn) (library stock concentration (final ~1000-fold dilution): 10 mM)
- NF-kB SEAP reporter activity (RAW-Dual [2]; agonist: LPS (TLR4) 0.1 ug/mL): 1.08
- NF-kB SEAP reporter activity (RAW-Dual [2]; [6]): 0.937
- NF-kB SEAP reporter activity (RAW-Dual [2]; [7]): 0.938
- NF-kB SEAP reporter activity (RAW-Dual [2]; [8]): 1.48

SMILES: COc1ccc(-c2ccc3c(N4CCOCC4C)nc(N4CCOCC4C)nc3n2)cc1CO (stereo not drawn) (library stock concentration (final ~1000-fold dilution): 10 mM)
- NF-kB SEAP reporter activity (RAW-Dual [2]; agonist: LPS (TLR4) 0.1 ug/mL): 1.62
- NF-kB SEAP reporter activity (RAW-Dual [2]; [6]): 1.12
- NF-kB SEAP reporter activity (RAW-Dual [2]; [7]): 0.372
- NF-kB SEAP reporter activity (RAW-Dual [2]; [8]): 0.555

SMILES: COc1ccc(-c2ccc3c(N4CCOCC4C)nc(N4CCOCC4C)nc3n2)cc1CO (stereo not drawn)
- NF-kB SEAP reporter activity (RAW-Dual [1]; [4]): 1.11
- NF-kB SEAP reporter activity (RAW-Dual [1]; [5]): 1.53

SMILES: Clc1ccc2nsnc2c1NC1=NCCN1 (library stock concentration (final ~1000-fold dilution): 10 mM)
- NF-kB SEAP reporter activity (RAW-Dual [2]; agonist: LPS (TLR4) 0.1 ug/mL): 1.16
- NF-kB SEAP reporter activity (RAW-Dual [2]; [6]): 0.953
- NF-kB SEAP reporter activity (RAW-Dual [2]; [7]): 0.991
- NF-kB SEAP reporter activity (RAW-Dual [2]; [8]): 1.14

SMILES: Clc1ccc2nsnc2c1NC1=NCCN1
- NF-kB SEAP reporter activity (RAW-Dual [1]; [4]): 0.918
- NF-kB SEAP reporter activity (RAW-Dual [1]; [5]): 0.985

SMILES: Cc1cc(Nc2cc(N3CCN(C)CC3)nc(Sc3ccc(NC(=O)C4CC4)cc3)n2)n[nH]1 (library stock concentration (final ~1000-fold dilution): 10 mM)
- NF-kB SEAP reporter activity (RAW-Dual [2]; agonist: LPS (TLR4) 0.1 ug/mL): 0.3
- NF-kB SEAP reporter activity (RAW-Dual [2]; [6]): 0.204
- NF-kB SEAP reporter activity (RAW-Dual [2]; [7]): 0.0965
- NF-kB SEAP reporter activity (RAW-Dual [2]; [8]): 0.226

SMILES: Cc1cc(Nc2cc(N3CCN(C)CC3)nc(Sc3ccc(NC(=O)C4CC4)cc3)n2)n[nH]1
- NF-kB SEAP reporter activity (RAW-Dual [1]; [4]): 0.255
- NF-kB SEAP reporter activity (RAW-Dual [1]; [5]): 0.315

SMILES: O=C1c2ccc(O)cc2C(=O)c2ccc(O)cc21
- NF-kB SEAP reporter activity (RAW-Dual [1]; [5]): 1.26

SMILES: O=C1c2ccc(O)cc2C(=O)c2ccc(O)cc21 (library stock concentration (final ~1000-fold dilution): 10 mM)
- NF-kB SEAP reporter activity (RAW-Dual [2]; agonist: LPS (TLR4) 0.1 ug/mL): 1.38
- NF-kB SEAP reporter activity (RAW-Dual [2]; [6]): 1.04
- NF-kB SEAP reporter activity (RAW-Dual [2]; [7]): 1.32
- NF-kB SEAP reporter activity (RAW-Dual [2]; [8]): 1.16

SMILES: CC(C)c1c2cc(-c3ccnc(NC4CCC(NC5CCOCC5)CC4)n3)ccc2nn1C (stereo not drawn) (library stock concentration (final ~1000-fold dilution): 10 mM)
- NF-kB SEAP reporter activity (RAW-Dual [3]; agonist: LPS (TLR4) 0.1 ug/mL): 0.18
- NF-kB SEAP reporter activity (RAW-Dual [3]; [6]): 0.223
- NF-kB SEAP reporter activity (RAW-Dual [3]; [7]): 0.0677
- NF-kB SEAP reporter activity (RAW-Dual [3]; [8]): 0.139

SMILES: CC(C)c1c2cc(-c3ccnc(NC4CCC(NC5CCOCC5)CC4)n3)ccc2nn1C (stereo not drawn)
- NF-kB SEAP reporter activity (RAW-Dual [1]; library stock concentration (final ~1000-fold dilution): 10 mM, cytotoxicity flag (confluency mask): cytotoxic (confluency <70% of control), agonist: Imiquimod (TLR7) […]): 0.216
- NF-kB SEAP reporter activity (RAW-Dual [1]; library stock concentration (final ~1000-fold dilution): 10 mM, cytotoxicity flag (confluency mask): cytotoxic (confluency <70% of control), agonist: MPLA (TLR4) […]): 0.235

SMILES: CC(=O)Nc1nnc(S(N)(=O)=O)s1 (library stock concentration (final ~1000-fold dilution): 10 mM)
- NF-kB SEAP reporter activity (RAW-Dual [2]; agonist: LPS (TLR4) 0.1 ug/mL): 1.1
- NF-kB SEAP reporter activity (RAW-Dual [2]; [6]): 1.07
- NF-kB SEAP reporter activity (RAW-Dual [2]; [7]): 1
- NF-kB SEAP reporter activity (RAW-Dual [2]; [8]): 1.14

SMILES: CC(=O)Nc1nnc(S(N)(=O)=O)s1
- NF-kB SEAP reporter activity (RAW-Dual [1]; [4]): 0.977
- NF-kB SEAP reporter activity (RAW-Dual [1]; [5]): 1.03

SMILES: Nc1nc(OCc2cc(Br)cs2)c2[nH]cnc2n1
- NF-kB SEAP reporter activity (RAW-Dual [1]; [4]): 0.918
- NF-kB SEAP reporter activity (RAW-Dual [1]; [5]): 1.25

SMILES: Nc1nc(OCc2cc(Br)cs2)c2[nH]cnc2n1 (library stock concentration (final ~1000-fold dilution): 10 mM)
- NF-kB SEAP reporter activity (RAW-Dual [2]; agonist: LPS (TLR4) 0.1 ug/mL): 1.44
- NF-kB SEAP reporter activity (RAW-Dual [2]; [6]): 1.14
- NF-kB SEAP reporter activity (RAW-Dual [2]; [7]): 0.645
- NF-kB SEAP reporter activity (RAW-Dual [2]; [8]): 0.628

SMILES: N#Cc1ccc2ncnc(NCCc3ccccc3)c2c1 (library stock concentration (final ~1000-fold dilution): 10 mM)
- NF-kB SEAP reporter activity (RAW-Dual [2]; agonist: LPS (TLR4) 0.1 ug/mL): 2.76

SMILES: O=[N+]([O-])c1ccc(Nc2nc(N3CCOCC3)nc(N3CCOCC3)n2)cc1 (library stock concentration (final ~1000-fold dilution): 10 mM)
- NF-kB SEAP reporter activity (RAW-Dual [2]; agonist: LPS (TLR4) 0.1 ug/mL): 1.17
- NF-kB SEAP reporter activity (RAW-Dual [2]; [6]): 0.863
- NF-kB SEAP reporter activity (RAW-Dual [2]; [7]): 0.888
- NF-kB SEAP reporter activity (RAW-Dual [2]; [8]): 0.701

SMILES: O=[N+]([O-])c1ccc(Nc2nc(N3CCOCC3)nc(N3CCOCC3)n2)cc1
- NF-kB SEAP reporter activity (RAW-Dual [1]; [4]): 1.09
- NF-kB SEAP reporter activity (RAW-Dual [1]; [5]): 1.35

SMILES: O=C1O[C@H]([C@@H](O)CO)C([O-])=C1O.[Na+]
- NF-kB SEAP reporter activity (RAW-Dual [1]; library stock concentration (final ~1000-fold dilution): 10 mM water, cytotoxicity flag (confluency mask): not cytotoxic, agonist: Imiquimod (TLR7) […]): 0.939
- NF-kB SEAP reporter activity (RAW-Dual [1]; library stock concentration (final ~1000-fold dilution): 10 mM water, cytotoxicity flag (confluency mask): not cytotoxic, agonist: MPLA (TLR4) […]): 1.05

SMILES: O=C1O[C@H]([C@@H](O)CO)C([O-])=C1O.[Na+] (library stock concentration (final ~1000-fold dilution): 10 mM water)
- NF-kB SEAP reporter activity (RAW-Dual [2]; agonist: LPS (TLR4) 0.1 ug/mL): 1.18
- NF-kB SEAP reporter activity (RAW-Dual [2]; [6]): 1.33
- NF-kB SEAP reporter activity (RAW-Dual [2]; [7]): 1.16
- NF-kB SEAP reporter activity (RAW-Dual [2]; [8]): 1.22

SMILES: Cc1ccc(S(=O)(=O)Nc2nc3ccccc3nc2Nc2ccc3nsnc3c2)cc1 (library stock concentration (final ~1000-fold dilution): 2 mM)
- NF-kB SEAP reporter activity (RAW-Dual [2]; agonist: LPS (TLR4) 0.1 ug/mL): 1.3
- NF-kB SEAP reporter activity (RAW-Dual [2]; [6]): 0.936
- NF-kB SEAP reporter activity (RAW-Dual [2]; [7]): 0.709
- NF-kB SEAP reporter activity (RAW-Dual [2]; [8]): 1.08

SMILES: Cc1ccc(S(=O)(=O)Nc2nc3ccccc3nc2Nc2ccc3nsnc3c2)cc1
- NF-kB SEAP reporter activity (RAW-Dual [1]; library stock concentration (final ~1000-fold dilution): 2 mM, cytotoxicity flag (confluency mask): not cytotoxic, agonist: Imiquimod (TLR7) […]): 0.936
- NF-kB SEAP reporter activity (RAW-Dual [1]; library stock concentration (final ~1000-fold dilution): 2 mM, cytotoxicity flag (confluency mask): not cytotoxic, agonist: MPLA (TLR4) […]): 1.02
